Experimental data reported in the supplement of paper PMC8728848.
The list shows a part of the results.

Legend:
Experiment in all cases: glycan array binding signal (z-score within array); higher = stronger binding
Conditions in all cases: glycan notation: IUPAC condensed, linker removed
[1] = biological target: Gal(a1-3)Gal
How it was run: (§1)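 From the Consortium for Functional Glycomics database, 3228 arrays were curated, keeping only those whose protein sequence was available. Binding is given as a within-array Z-score averaged across arrays sharing a protein sequence and across linkers. Negative Z-scores can be read as non-binding.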

[2] = biological target: Gal(a1-3)Gal(b1-3)GlcNAc
How it was run: as §1

[3] = biological target: Gal(a1-3)Gal(b1-3)GlcNAc(b1-2)Man
How it was run: as §1

[4] = biological target: Gal(a1-3)Gal(b1-3)GlcNAc(b1-2)Man(a1-3)[Gal(a1-3)Gal(b1-3)GlcNAc(b1-2)Man(a1-6)]Man(b1-4)GlcNAc(b1-4)GlcNAc
How it was run: as §1

[5] = biological target: Gal(a1-3)Gal(b1-3)GlcNAc(b1-3)GalNAc
How it was run: as §1

[6] = biological target: Gal(a1-3)Gal(b1-3)GlcNAc(b1-6)GalNAc
How it was run: as §1

[7] = biological target: Gal(a1-3)Gal(b1-3)[Fuc(a1-4)]GlcNAc(b1-2)Man(a1-3)[Gal(a1-3)Gal(b1-3)[Fuc(a1-4)]GlcNAc(b1-2)Man(a1-6)]Man(b1-4)GlcNAc(b1-4)GlcNAc
How it was run: as §1

[8] = biological target: Gal(a1-3)Gal(b1-4)Glc
How it was run: as §1

[9] = biological target: Gal(a1-3)Gal(b1-4)GlcNAc
How it was run: as §1

[10] = biological target: Gal(a1-3)Gal(b1-4)GlcNAc(b1-2)Man
How it was run: as §1

[11] = biological target: Gal(a1-3)Gal(b1-4)GlcNAc(b1-2)Man(a1-3)[Gal(a1-3)Gal(b1-4)GlcNAc(b1-2)Man(a1-6)]Man(b1-4)GlcNAc(b1-4)GlcNAc
How it was run: as §1

[12] = biological target: Gal(a1-3)Gal(b1-4)GlcNAc(b1-3)GalNAc
How it was run: as §1

[13] = biological target: Gal(a1-3)Gal(b1-4)GlcNAc(b1-6)GalNAc
How it was run: as §1

[14] = biological target: Gal(a1-3)Gal(b1-4)[Fuc(a1-3)]GlcNAc
How it was run: as §1

[15] = biological target: Gal(a1-3)Gal(b1-4)[Fuc(a1-3)]GlcNAc(b1-2)Man(a1-3)[Gal(a1-3)Gal(b1-4)[Fuc(a1-3)]GlcNAc(b1-2)Man(a1-6)]Man(b1-4)GlcNAc(b1-4)GlcNAc
How it was run: as §1

[16] = biological target: Gal(a1-3)GalNAc
How it was run: as §1

[17] = biological target: Gal(a1-3)[Gal(a1-4)]Gal(b1-4)GlcNAc
How it was run: as §1

[18] = biological target: Gal(a1-4)Gal(b1-3)GlcNAc(b1-2)Man(a1-3)[Gal(a1-4)Gal(b1-3)GlcNAc(b1-2)Man(a1-6)]Man(b1-4)GlcNAc(b1-4)GlcNAc
How it was run: as §1

[19] = biological target: Gal(a1-4)Gal(b1-4)Glc
How it was run: as §1

[20] = biological target: Gal(a1-4)Gal(b1-4)GlcNAc
How it was run: as §1

[21] = biological target: Gal(a1-4)Gal(b1-4)GlcNAc(b1-2)Man(a1-3)[Gal(a1-4)Gal(b1-4)GlcNAc(b1-2)Man(a1-6)]Man(b1-4)GlcNAc(b1-4)GlcNAc
How it was run: as §1

[22] = biological target: Gal(a1-4)Gal(b1-4)GlcNAc(b1-3)Gal(b1-4)Glc
How it was run: as §1

[23] = biological target: Gal(a1-4)GlcNAc
How it was run: as §1

[24] = biological target: Gal(a1-6)Glc
How it was run: as §1

[25] = biological target: Gal(b1-2)Gal
How it was run: as §1

[26] = biological target: Gal(b1-3)Gal
How it was run: as §1

[27] = biological target: Gal(b1-3)Gal(b1-4)GlcNAc
How it was run: as §1

[28] = biological target: Gal(b1-3)GalNAc
How it was run: as §1

[29] = biological target: Gal(b1-3)GalNAc(a1-3)[Fuc(a1-2)]Gal(b1-4)Glc
How it was run: as §1

[30] = biological target: Gal(b1-3)GalNAc(a1-3)[Fuc(a1-2)]Gal(b1-4)GlcNAc
How it was run: as §1

[31] = biological target: Gal(b1-3)GalNAc(b1-3)Gal
How it was run: as §1

[32] = biological target: Gal(b1-3)GalNAc(b1-3)Gal(a1-4)Gal(b1-4)Glc
How it was run: as §1

[33] = biological target: Gal(b1-3)GalNAc(b1-4)Gal(b1-4)Glc
How it was run: as §1

[34] = biological target: Gal(b1-3)GalNAc(b1-4)[Neu5Ac(a2-3)]Gal(b1-4)Glc
How it was run: as §1

[35] = biological target: Gal(b1-3)GlcNAc
How it was run: as §1

[36] = biological target: Gal(b1-3)GlcNAc(a1-3)Gal(b1-4)GlcNAc
How it was run: as §1

[37] = biological target: Gal(b1-3)GlcNAc(a1-6)Gal(b1-4)GlcNAc
How it was run: as §1

[38] = biological target: Gal(b1-3)GlcNAc(b1-2)Man
How it was run: as §1

B1: Arath Fbox (Arabidopsis thaliana), NP_178341.1 (protein)
chain: EFTWGRKRRVKSESSPFDSFPEDCISYIISFTNPRDACVAATVSKTFESTVKSDIIWEKFLPADYESLIPPSRVFSSKKELYFSLCNDPVLFDDDKKSVWLEKASGKRCLMLSAMNLSIIWGDNPQYWQWIPIPESRFEKVAKLRDVCWFEIRGRTNTRVLSPRTRYSAYIVFKGVDKCYGFQNVAIEAAVGVVGQEPSRRLICFSEAIRRGRRNVVKPKQREDGWMEIELGEFFNDGGIMDNDEIEMSALETKQLNRKCGLIIQGIEIRPAKILAAAAASFLEQKLISEEDLNSAVDHHHHHH
- glycan array binding signal (z-score) [1]: -0.35
- glycan array binding signal (z-score) [2]: 12
- glycan array binding signal (z-score) [3]: 0.956
- glycan array binding signal (z-score) [4]: 1.17
- glycan array binding signal (z-score) [5]: -0.242
- glycan array binding signal (z-score) [6]: -0.119
- glycan array binding signal (z-score) [7]: 3.32
- glycan array binding signal (z-score) [8]: 0.415
- glycan array binding signal (z-score) [9]: -0.461
- glycan array binding signal (z-score) [10]: -0.588
- glycan array binding signal (z-score) [11]: 1.57
- glycan array binding signal (z-score) [12]: -0.652
- glycan array binding signal (z-score) [13]: -0.593
- glycan array binding signal (z-score) [14]: -0.11
- glycan array binding signal (z-score) [15]: 0.161
- glycan array binding signal (z-score) [16]: -0.233
- glycan array binding signal (z-score) [17]: 1.48
- glycan array binding signal (z-score) [18]: 2.49
- glycan array binding signal (z-score) [19]: 0.185
- glycan array binding signal (z-score) [20]: 0.523
- glycan array binding signal (z-score) [21]: 0.198
- glycan array binding signal (z-score) [22]: -0.37
- glycan array binding signal (z-score) [23]: -0.661
- glycan array binding signal (z-score) [24]: 0.448
- glycan array binding signal (z-score) [25]: 0.344
- glycan array binding signal (z-score) [26]: -0.692
- glycan array binding signal (z-score) [27]: 1.16
- glycan array binding signal (z-score) [28]: -0.086
- glycan array binding signal (z-score) [29]: -0.148
- glycan array binding signal (z-score) [30]: -0.124
- glycan array binding signal (z-score) [31]: -0.739
- glycan array binding signal (z-score) [32]: 0.603
- glycan array binding signal (z-score) [33]: 0
- glycan array binding signal (z-score) [34]: 0.28
- glycan array binding signal (z-score) [35]: -0.544
- glycan array binding signal (z-score) [36]: 0.017
- glycan array binding signal (z-score) [37]: 0.001
- glycan array binding signal (z-score) [38]: 0.065
